In all, about 420,000 compounds went through this assay and about 50,000 (12%) were called active. Inconclusive means that the source gave no clear call. Such entries were picked first, then a sample of the others. Calls come from the whole dose curve; as a rule, active = well fitted inhibition curve with a large enough effect; inconclusive = small, poorly fitted or top-dose-only effect; inactive = flat fitted curve, though single readings scatter. No potency is given beside an inconclusive call; the fits are too rough.
Assay: qHTS for Inhibitors of human tyrosyl-DNA phosphodiesterase 1 (TDP1): qHTS in cells in presence of CPT; note: nearly all actives have a fitted effect of over 55% in size
Conditions: chicken DT40 Tdp1-/-;hTDP1 cells + 20 nM CPT, ATP luminescence, 48 h; series mostly up to 46.2 µM
Outline: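 Chicken DT40 Tdp1-/- cells stably complemented with human TDP1 were seeded at 400 cells/well in medium containing 20 nM camptothecin, exposed to pin-transferred compounds, and grown at 37 °C for at least 48 hr. Viability was read as ATP luminescence.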
With `CCC[N+](CC#Cc1ccccc1)(CCC)CC(=O)OC` the Potency was inconclusive [inhibitor, single point].
In the case of `CN1CC(=O)N2C(c3ccc(Cl)cc3)c3[nH]c4ccccc4c3C[C@H]2C1=O` (some centres not stated), the Potency is reported as active: 14.6 µM.
With `O=C(CN1CCCC1)Nc1ccc([N+](=O)[O-])cc1Cl` the Potency was “inactive”.
With `Cc1ccc(NC(=O)C2CCN(c3cnccn3)CC2)cc1C` the Potency was “inactive”.
With `CCCCCCCn1c(C)nnc1-c1cnn(C)c1N` the Potency was “inactive”.
With `CCCC(=O)NC(=S)Nc1cccc(Cl)c1N1CCCCC1` the Potency was inconclusive [inhibitor, single point].
In the case of `COc1cccc(C(=O)Nc2cccc(-c3nc4ncccn4c3C)c2)c1`, the Potency is reported as inconclusive [inhibitor, single point].
With `COCCNc1nc(NCc2ccc(C)cc2C)c2sccc2n1` the Potency was active: 14.6 µM.
For `CCOc1ccccc1NC(=O)CN1CCc2ccccc2C1`, the Potency was inconclusive [inhibitor, single point].
In the case of `COc1ccc(-c2nc3cc(C)ccn3c2NC(=O)c2cccc(F)c2)cc1`, the Potency is reported as inconclusive [inhibitor, single point].
In the case of `CCOC(=O)c1c(C)[nH]c(NC(=O)Nc2c(C)n(C)n(-c3ccccc3)c2=O)c1C`, the Potency is reported as “inactive”.
For `O=C1C=C(c2ccc3cc[nH]c3c2)C[C@@H](c2ccc3c(c2)OCO3)C1`, the Potency was active: 1.84 µM.
For `COC(=O)c1c(OCc2ccccn2)cc(=O)n2c1CCN(Cc1ccc3nsnc3c1)CC2`, the Potency was inconclusive [inhibitor, single point].
With `COc1cc(/C=N/Nc2nc(Nc3ccccc3)nc(N3CCCCC3)n2)ccc1OCC(=O)O` the Potency was inconclusive [inhibitor, single point].
In the case of `Cn1c(C(=O)NCC2CCCO2)cc2c(=O)n(C)c3ccccc3c21` (configuration not stated), the Potency is reported as inconclusive [inhibitor, single point].
For `Cc1ccc(S(=O)(=O)NCc2ccccc2)cc1C(=O)N1CC(C)CC(C)C1` (configuration not stated), the Potency was inconclusive [inhibitor, single point].
In the case of `Cc1nc2c(C(F)(F)F)cccc2c2c1CCS2`, the Potency is reported as “inactive”.
With `Cn1c(SC2=CS(=O)(=O)c3ccccc32)nc2ccccc21` the Potency was active: 2.31 µM.
In the case of `C=CCSc1nnc(C)c(/C=C/Nc2ccc(Cl)cc2)n1`, the Potency is reported as inconclusive [inhibitor, single point].
With `Cc1nc(-c2ccc(F)cc2)c(CC(=O)N(C)CC(=O)Nc2ccccc2Cl)s1` the Potency was inconclusive [inhibitor, partial curve].
With `COc1ccc(NC(=O)c2cccn(CC=C(C)C)c2=O)cc1` the Potency was “inactive”.
For `NC(=O)[C@@H]1CC2(CC(c3cccc(NC(=O)COc4ccc(Cl)cc4)c3)=NO2)CN1C(=O)c1ccccc1` (some centres not stated), the Potency was inconclusive [inhibitor, single point].
With `Cc1ccc(/C=C(\C#N)C(=O)Nc2cccc(Cl)c2)o1` the Potency was active: 1.3 µM.
With `Cc1ccc2c(c1)c1c(n2CC(O)CNC2CCCC2)CCCC1` (configuration not stated) the Potency was inconclusive [inhibitor, single point].
With `CCc1ccccc1Oc1ccc(S(=O)(=O)N2CCN(C)CC2)cn1` the Potency was inconclusive [inhibitor, partial curve, poor fit].
With `Nc1nc(-c2ccccc2)ns1` the Potency was “inactive”.
With `CCCCn1nnc(NC(=S)NC(=O)c2cccs2)n1` the Potency was “inactive”.
In the case of `COc1ccccc1NC(=O)C(C)NC(c1ccccc1)c1ccccc1` (configuration not stated), the Potency is reported as inconclusive [inhibitor, single point].
With `O=C(NCCn1cc(SCc2ccc(Br)cc2)c2ccccc21)c1cccs1` the Potency was active: 23.1 µM.
In the case of `Cc1cc(OCC(=O)O/N=C(\N)c2ccccc2)ccc1Br`, the Potency is reported as “inactive”.
With `CC(=O)c1c(C)n(-c2ccc(C)cc2C)c2ccc(O)cc12` the Potency was inconclusive [inhibitor, single point].
With `O=C(NCC1CCCO1)c1ccccc1-c1nc(-c2ccc(Cl)cc2)no1` (configuration not stated) the Potency was active: 18.4 µM.
With `CC1(C(=O)NC(=S)N(CCC#N)c2ccccc2)CC1(Cl)Cl` (configuration not stated) the Potency was inconclusive [inhibitor, single point].
In the case of `NS(=O)(=O)c1ccc(NC(=O)COC(=O)C2CC(=O)N(Cc3ccccc3)C2)cc1` (configuration not stated), the Potency is reported as “inactive”.
With `CN(C(=O)COC(=O)Cc1c(F)cccc1Cl)c1c(N)n(Cc2ccccc2)c(=O)[nH]c1=O` the Potency was inconclusive [inhibitor, single point].
In the case of `O=C(CSC1=NCCN1)Nc1cccc([N+](=O)[O-])c1`, the Potency is reported as active: 14.6 µM.
With `CCOc1ccccc1C(=O)N/N=C/c1coc2ccc(Cl)cc2c1=O` the Potency was inconclusive [inhibitor, single point].
In the case of `CC(C)(C)c1nc2ccccc2c2nnc(SCC(=O)NCc3ccco3)n12`, the Potency is reported as inconclusive [inhibitor, single point].
In the case of `CC(=O)c1cccc(Nc2ccc(-c3ccccc3F)nn2)c1`, the Potency is reported as “inactive”.
For `Oc1ccc2sc(-c3ccccc3O)c(-c3ccc(OCCN4CCCCC4)cc3)c2c1`, the Potency was active: 20.6 µM.
With `Cc1ccccc1NC(=O)CSc1nc2ccc(Nc3nc(N4CCOCC4)nc(N4CCOCC4)n3)cc2s1` the Potency was inconclusive [inhibitor, single point].
For `O=c1[nH]c2ccccc2n1CCCSCCCn1c(=O)[nH]c2ccccc21`, the Potency was inconclusive [inhibitor, single point].
In the case of `CCC1Oc2ccccc2N(CC(=O)NCc2cc(OC)ccc2OC)C1=O` (configuration not stated), the Potency is reported as inconclusive [inhibitor, partial curve, poor fit].
In the case of `O=C(COC(=O)/C=C/C(=O)OCC(=O)NC12CC3CC(CC(C3)C1)C2)NC12CC3CC(CC(C3)C1)C2`, the Potency is reported as active: 13 µM.
With `CCOC(=O)C1=C(C)Nc2ccccc2N/C1=N\S(=O)(=O)c1ccc(Cl)cc1` the Potency was inconclusive [inhibitor, single point].
For `O=C(NN1C(=O)NC2(CCCCC2)C1=O)c1ccc(-c2ccc([N+](=O)[O-])cc2)o1`, the Potency was active: 20.6 µM.
In the case of `O=C(Nc1nc2ccccc2n1Cc1ccccc1)c1ccco1`, the Potency is reported as active: 20.6 µM.

Reference: PubChem BioAssay AID686979 (National Center for Advancing Translational Sciences (NCATS), 2013)
Potency is the fitted concentration of half-maximal effect; tags give direction and shape of the fitted curve.
